According to publication PMC6134095 (2018):

B1: FtsQ ([…]) and FtsB ([…]) added together (complex)
chain 1: [about 200 residues cut from this listing]
chain 2: GKNGIHDYTRVNDDVAAQQATNAKLKARNDQLFAEIDDLNGGQEALEERARNELSMTRPGETFYRLVPDASKRAQSAGQNNR
B2: FtsQ ([…]), periplasmic domain of E. coli FtsQ (domain or fragment)
chain: not shown

Legend:
Experiment in all cases: SPR
[1] = biological target: T1, FtsL (58–121), periplasmic domain of E. coli FtsL (E. coli, UniProt P0AEN4 58-121)
T1 chain: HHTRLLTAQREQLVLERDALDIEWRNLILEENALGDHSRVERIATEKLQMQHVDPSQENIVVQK

FtsB F84A [2] = biological target: T2, FtsB F84A (E. coli, UniProt P0A6S5 22-103, F84A)
FtsB R72A [3] = biological target: T3, FtsB R72A (E. coli, UniProt P0A6S5 22-103, R72A)
FtsB F84A [4] = biological target: T2, FtsB F84A; remark: listed apart in the source
FtsB R72A [5] = biological target: T3, FtsB R72A; remark: listed apart in the source

Row | Binder | koff [1] [s⁻¹] | Kd (FtsB F84A [2]) [µM] | Kd (FtsB R72A [3]) [µM] | koff (FtsB F84A [4]) [s⁻¹] | koff (FtsB R72A [5]) [s⁻¹]
1 | B1 | 0.045 |  |  |  | 
2 | B2 |  | 38 | 26 | 0.014 | 0.015
